Assay results as given in the supplement of paper PMC3334620.
Over roughly 33,000 sequences, “E-score (-0.5 to 0.5)” has its median near -0.016; the highest 2% begin near 0.32. The list shows a part of the results.

Molecular target: T1, Stp1 (UniProt B3LFK1)
T1 sequence: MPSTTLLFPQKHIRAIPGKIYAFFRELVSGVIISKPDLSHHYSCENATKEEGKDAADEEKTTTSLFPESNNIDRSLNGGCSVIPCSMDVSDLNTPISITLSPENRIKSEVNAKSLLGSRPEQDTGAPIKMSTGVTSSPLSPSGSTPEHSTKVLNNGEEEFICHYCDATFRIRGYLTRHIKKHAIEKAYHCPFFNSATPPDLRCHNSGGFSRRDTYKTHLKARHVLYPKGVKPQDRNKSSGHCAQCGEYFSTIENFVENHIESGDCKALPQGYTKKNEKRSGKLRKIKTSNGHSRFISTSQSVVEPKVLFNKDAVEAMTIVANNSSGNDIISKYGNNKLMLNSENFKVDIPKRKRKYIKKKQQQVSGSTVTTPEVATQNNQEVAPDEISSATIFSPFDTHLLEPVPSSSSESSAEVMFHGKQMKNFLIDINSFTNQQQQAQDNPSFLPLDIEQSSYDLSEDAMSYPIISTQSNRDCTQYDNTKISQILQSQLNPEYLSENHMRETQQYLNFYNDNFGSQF
Assay: PBM E-score (8-mer binding enrichment) (E-score (-0.5 to 0.5)); higher = stronger / more preferred TF binding; most listed sequences are background and not binding sites
Conditions: protein concentration: 200 nM; construct: GST-full length
Experimental: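 Universal 'all 10-mer' protein binding microarrays (Agilent AMADID 015681) probed with GST-tagged S. cerevisiae TFs (full-length or DBD) made by in vitro transcription/translation (PURExpress), about 100-200 nM. Bound TF was detected with fluorescent anti-GST. Each ungapped 8-mer (which stands for itself and its reverse complement) is scored by the PBM enrichment score (E-score), a modified Wilcoxon-Mann-Whitney statistic from -0.5 to +0.5, computed with the Universal PBM Analysis Suite. Scale: above 0.35 generally sequence-specific binding.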

Sequence	PBM E-score
ATCTTTTG	0.0677
AGTTCTTC	0.00965
CTGGCCTA	-0.316
GAGCAACA	0.0625
CGATCAAG	-0.0842
AGTTACTA	-0.0212
GACTAGGA	-0.12
AACTATCG	-0.203
GCGAGATA	0.0771
TCGGACCA	0.00747
CTATGACC	-0.151
ACGAGAGC	-0.125
ACTAGCTA	-0.179
AGGGCTAA	0.0399
CACGGCTA	0.415
AACGCGCT	0.0273
CCACTGGC	-0.0395
GCAAATTA	0.0644
CCTGCAAG	-0.173
CGAAGACA	-0.0318
AGGCACTG	0.291
TGACGGAA	-0.018
AGAGCCCT	-0.0706
ACTGGGAG	-0.257
CGGCGAGC	0.307

Sequence	PBM E-score
GCGATAAA	0.216
AATAGTAA	0.0925
AGCGGGGG	-0.287
CAGGCGAA	0.0577
GCTGACAC	0.0133
AGGGGTCA	-0.363
CATTCGTA	-0.0576
TACTCTAA	0.034
ACATCATG	-0.173
ATGGCCCG	-0.0564
AAGGCTCA	0.16
AAGTTGCC	0.168
CCCGTAGG	-0.209
AAAGCGTT	-0.142
GACAGGGA	0.0424
CGAGTTAG	-0.00325
CCTAACTA	0.133
CGCTCCCA	-0.109
CCTCCATA	0.0205
ATAGCCGG	0.0799
CTACACAA	0.0422
GGCACCCA	0.211
AACCGCCC	-0.149
CACAATGC	0.00061
CCTGCAGA	-0.117

Sequence	PBM E-score
GCGTCGTA	0.159
GCATAACC	-0.136
ATACCCGG	-0.0802
CACTGGGG	-0.231
CAGACAAA	0.13
ATGGAAAC	-0.0997
GTTTGTAA	0.0806
CCCAGATC	-0.286
ACATTCTG	0.0191
CAAGAGTC	-0.177
AAGGCTAA	0.124
GACTGCCC	-0.187
GATGGAGC	0.0391
ACACTTAG	0.0417
GCAGTGGA	-0.0787
GATTACGA	0.103
AGCGGGAC	-0.257
GAAAGCAC	0.064
ATGAATCG	0.125
CACGGCGA	0.474
CCTTCACA	-0.0862
ACCGACGC	0.0223
AACTTCTG	-0.0279
CCGCGTAC	0.15
CCAAGGGA	-0.321

Sequence	PBM E-score
ACACCAAG	0.00503
CTGACGGA	-0.146
AATCGAGC	0.0349
CGAGCTGA	-0.115
AGCAGCAT	-0.0583
AGGTGACC	-0.244
GGTGTTCA	0.0178
CCCACACC	-0.0557
TCCTGGAA	-0.313
ACTACTCC	-0.0292
GATGTATA	0.0575
AAGTTGCT	0.0114
CTAGCGTA	-0.336
AGACTAGC	-0.228
ACCTGTTA	-0.23
CTCACCGA	0.0639
GTACCTAC	-0.136
ACTTTTGC	0.207
AGGCATTG	0.24
GGACACTA	-0.0339
AGTATCGA	0.206
ACACCCAA	-0.136
CGACAGCG	-0.022
TACGAATA	0.0335
ACCCGCCG	0.214

Sequence	PBM E-score
GCTAAGGA	0.0235
ACAGGACA	-0.0257
CGCACTGA	-0.0386
GCCATTGA	0.226
ATTTCAGG	0.0844
CCAACTTA	0.132
GAAGCTGC	-0.188
CCTTTGAC	-0.0626
CTCTTGGC	-0.158
CGCGTCAC	0.138
CGAAGGCA	0.116
AAGTGACC	-0.218
ATGTTGGC	0.0025
TCAGCCAA	-0.203
ATCTCGCA	0.117
AGCAGCCG	0.187
AGAATGCG	0.0201
TGATGGAA	-0.153
ATGTCACA	0.0996
GTTTAAAA	0.277
AATGTGAG	0.0283
AAGACTAA	0.0167
ACAGGCGA	-0.0206
CTAGTAAA	0.145
ACAGCTCG	-0.121

Sequence	PBM E-score
GACCTTCA	-0.201
ATTAAACG	0.19
CGACTGCC	-0.0225
ATCGGTAC	-0.0209
TAGCGCTA	-0.0704
ATCATAGA	0.18
ACATGCCG	0.369
AAGGACGT	-0.0457
TATGGGGA	0.0926
AAAGTCGT	-0.153
AAGCGGCT	0.354
CAAAACTG	-0.0236
ATCCCAAC	-0.118
CTATCGTC	-0.184
CTGGCTTC	-0.108
ACGAAAAC	0.226
CTTCCTGA	0.0538
AGCGTCCA	-0.197
AATATTTG	0.181
CAACTTCG	0.114
AAACAGTG	-0.0405
AGGGGAGG	-0.213
ATCCACAT	0.0725
CGCGGTGC	0.135
AGACTCCG	-0.0821

Sequence	PBM E-score
CAAGCTAA	-0.267
ACGCCAGA	-0.159
CCTATATA	0.0736
ACCCGACA	-0.0605
ATACGGGA	0.125
CGATTGAC	0.0667
CAGACCCA	-0.255
CTGCTAGA	0.0114
CGTAAAGA	0.228
AGATTCTG	-0.029
CGGTTGAC	-0.0333
GATTGCGA	0.0729
CATATCAG	0.0919
CCCAGCAC	-0.28
AATACTGG	-0.155
CATACATC	-0.155
CAAAGCCA	0.0366
GGGTACCC	-0.326
CCCGGCCG	-0.152
GCGTCCTA	-0.157
CTGCTGTC	-0.116
ATCGAGTC	-0.0633
